{
  "source": "patent US12338279B2",
  "about": "“Selective and potent inhibitory antibodies of myostatin activation” (SCHOLAR ROCK, INC., priority 2022, dated 2025)",
  "molecules": {"B1": {"name": "Ab130: anti-pro/latent myostatin antibody; CDRs in Tables 2d-f, variable domains Table 3, chains Table 4 (antibody)", "heavy": "EVQLVESGGGLVQPGGSLRLSCAASGFTFTSYGMSWVRQAPGKGLELVASITGSGGETYYPDSVKGRFTISRDNAKNSLYLQMNSLRAEDTAVYYCARDLLVRFLEWSHYYGMDVWGQGTTVTVSSASTKGPSVFPLAPCSRSTSESTAALGCLVKDYFPEPVTVSWNSGALTSGVHTFPAVLQSSGLYSLSSVVTVPSSSLGTKTYTCNVDHKPSNTKVDKRV[human IgG4 Fc with S228P (EU numbers) left out]", "light": "DIVMTQSPLSLPVTPGEPASISCRSSQSLLHSSGHNFLHWYLQKPGQSPQLLIYETSNRAPGIPDRFSGSGSGTDFTLKISRVEAEDVGVYYCQQATQFPRPFGGGTKVEIKRTVAAPSVFIFPPSDEQLKSGTASVVCLLNNFYPREAKVQWKVDNALQSGNSQESVTEQDSKDSTYSLSSTLTLSKADYEKHKVYACEVTHQGLSSPVTKSFNRGEC"}},
  "key": {"[1]": {"test_system": "dexamethasone-induced muscle atrophy in C57BL6 male mice", "experiment": "Dexamethasone-induced muscle atrophy mouse model", "format": "in vivo", "text": "To evaluate in vivo efficacy of the novel myostatin-selective inhibitors disclosed herein, the ability of the antibodies to preserve lean muscle mass was examined in a dexamethasone-induced atrophy mouse model. An excess of glucocorticoids directly stimulates myostatin production via interactions with a glucocorticoid response element in the myostatin promoter, thus inducing loss of muscle mass. As shown herein, antibodies of the disclosure prevented glucocorticoid-induced muscle atrophy.\nC57BL6 male mice (n=8) at 13-14 weeks of age were given normal drinking water or water containing dexamethasone at a concentration of 2.5 mg/kg (17.5 grams dexamethasone per liter of drinking water) to induce atrophy. […] Body weight was measured daily. Body composition was measured by qNMR to determine lean mass pre-dosing, at day 7, and at day 14. After 14 days of dexamethasone exposure, the animals were terminated, and body weight and gastrocnemius weight were measured. Terminal blood for each animal was also collected.\nC57BL6 male mice (n=8) at 13-14 weeks of age were given normal drinking water or water containing dexamethasone at a concentration of 2.5 mg/kg to induce atrophy. Mice were dosed at day 1 and day 7 with vehicle (PBS), IgG control (“hIgG”) or different doses of the test antibodies, as shown in Table 13. Muscle mass at days −1, 6 and 13 was measured using qNMR. At the end of the study (day 14), serum from each animal was collected and changes in body weight, body composition (qNMR), left and right gastrocnemius weight, and left and right quadriceps weight were measured. Statistical analysis was performed by ANOVA (Dunnett's multiple comparison test).\nIn a third experiment, antibody doses ranging from 0.3 mg/kg to 10 mg/kg were compared for their effectiveness in attenuating dexamethasone-induced atrophy. C57BL6 male mice (n=8) at 13-14 weeks of age were given normal drinking water or water containing dexamethasone at a concentration of 2.5 mg/kg to induce atrophy. Mice were dosed at day 1 and day 7 with vehicle (PBS), human IgG control (“hIgG”) or different doses of the test antibodies, as shown in Table 14 below. qNMR was used to measure muscle mass at days-1, 6 and 13. At day 14 the study ended, serum was collected and changes in body composition (qNMR), left and right gastrocnemius weight, and left and right quadriceps weight were determined. Circulating myostatin was measured in the serum of a terminal bleed taken at day 14. Statistical analysis was performed by ANOVA (Dunnett's multiple comparison test).\nIn a fourth experiment, antibodies Ab109 and Ab133 were compared to control human IgG and Ab2 in the same protocol as described above."}, "total myostatin in serum [2]": {"test_system": "total myostatin in serum", "experiment": "Total serum myostatin, liraglutide study", "format": "in vivo, mouse", "conditions": "for Myostatin (total serum myostatin): terminal bleed serum", "protocol": "Levels of the antibodies' exposure to myostatin in the serum was measured by assaying for total myostatin in the serum (Lakshman (2009) Cellular Endocrinol 302:26). […] The samples were then neutralized and assayed for mature growth factor."}, "total myostatin in serum [3]": {"test_system": "total myostatin in serum", "experiment": "Circulating total myostatin in serum (acidification ELISA), dexamethasone model", "format": "in vivo, mouse", "conditions": "for Circulating total myostatin levels: terminal serum", "text": "Briefly, serum samples were acidified at low pH (e.g., pH ˜2.5) to dissociate the bound antibody from the immune complex and to convert all myostatin in the sample to the active form of growth factor (i.e., mature myostatin). Samples were then neutralized and assayed for the presence of mature myostatin on ELISA plates coated with anti-mature myostatin antibodies as capture reagents."}, "[4]": {"experiment": "Terminal serum antibody exposure, dexamethasone model", "format": "in vivo, mouse", "conditions": "day 1 and day 7, dexamethasone-treated mice", "protocol": "Antibody exposure and circulating total myostatin levels were measured in the serum collected from the terminal bleeds after treatment with Ab2, Ab130 and Ab109. The results are shown in Table 15 and Table 16 respectively."}, "[5]": {"test_system": "diet-induced obese mice on liraglutide", "experiment": "High fat diet (DIO) mice treated with liraglutide and antibody", "format": "in vivo, mouse", "protocol": "Caloric restriction causes loss of both fat and lean mass; inhibiting myostatin maintains lean mass during weight loss. […] Changes in body composition were assessed by qNMR readout for fat mass and lean mass; gastrocnemius weight; and inguinal and perigonadal fat pad weight.\nTen-week-old male mice were fed formula D12492 ad lib, a high-calorie diet comprised of 60% fat, and remained on this diet throughout the study. The antibodies were dosed weekly and liraglutide was dosed daily. Body composition and body weight were measured by qNMR prior to dosing, at 2 weeks, and at the end of the dosing period body weight. Gastrocnemius muscles were removed, and their weights were measured after the animals were terminated."}, "[6]": {"conditions": "in combination with liraglutide"}},
  "note": "Entries after “also recorded” stand apart in the source; their conditions may differ.",
  "data": [
    {"molecule": "B1", "values": [
      {"measurement": "body weight loss in dexamethasone treated mice", "setting": "[1]; doses 0.3-10 mg/kg on day 1 and day 7, dose as in the words, FIG. 7A, FIG. 10A", "result": "efficacious in preserving body weight"},
      {"measurement": "lean mass by qNMR in dexamethasone treated mice", "setting": "[1]; doses 0.3-10 mg/kg, dose as in the words, FIG. 7B, FIG. 10B", "result": "At a dose of 10 mg/kg, Ab130 showed greater efficacy in preserving lean mass than Ab2"},
      {"measurement": "gastrocnemius muscle weight in dexamethasone treated mice", "setting": "[1]; doses 0.3-10 mg/kg, dose as in the words, FIG. 7C, FIG. 10C", "result": "more efficacy at 3 mg/kg than both doses of Ab2"},
      {"measurement": "quadriceps muscle weight in dexamethasone treated mice", "setting": "[1]; doses 0.3-10 mg/kg, dose as in the words, FIG. 7D, FIG. 10D", "result": "more efficacy at 3 mg/kg than both doses of Ab2"},
      {"measurement": "Myostatin (total serum myostatin)", "setting": "total myostatin in serum [2]; antibody 1 mg/kg/week + liraglutide 0.06 mg/kg q.d.", "result": 52.9, "unit": "ng/mL"},
      {"measurement": "Myostatin (total serum myostatin)", "setting": "total myostatin in serum [2]; antibody 3 mg/kg/week + liraglutide 0.06 mg/kg q.d.", "result": 41.5, "unit": "ng/mL"},
      {"measurement": "Myostatin (total serum myostatin)", "setting": "total myostatin in serum [2]; antibody 10 mg/kg/week + liraglutide 0.06 mg/kg q.d.", "result": 41.0, "unit": "ng/mL"},
      {"measurement": "Myostatin (total serum myostatin)", "setting": "total myostatin in serum [2]; antibody 20 mg/kg/week + liraglutide 0.06 mg/kg q.d.", "result": 42.4, "unit": "ng/mL"},
      {"measurement": "total serum myostatin", "setting": "total myostatin in serum [2]; liraglutide-treated mice, Table 21, FIG. 15B", "result": "reduced total serum myostatin concentrations compared to Ab2; also recorded: increase in serum myostatin levels"},
      {"measurement": "accumulation of total or latent myostatin in serum samples from dosed subjects", "setting": "total myostatin in serum [3]; as compared to apitegromab", "result": "reduced accumulation of circulating latent myostatin"},
      {"measurement": "total circulating myostatin in serum", "setting": "total myostatin in serum [3]; dexamethasone-treated mice, FIG. 8, FIG. 15A", "result": "lower levels of total circulating myostatin as compared to Ab2 treatment; also recorded: increase in serum myostatin levels"},
      {"measurement": "Circulating total myostatin levels", "setting": "total myostatin in serum [3]; dose 0.3 mg/kg, dexamethasone-treated mice", "result": 473.8, "unit": "ng/mL"},
      {"measurement": "Circulating total myostatin levels", "setting": "total myostatin in serum [3]; dose 1 mg/kg, dexamethasone-treated mice", "result": 567.3, "unit": "ng/mL"},
      {"measurement": "Circulating total myostatin levels", "setting": "total myostatin in serum [3]; dose 3 mg/kg, dexamethasone-treated mice", "result": 585.6, "unit": "ng/mL"},
      {"measurement": "Circulating total myostatin levels", "setting": "total myostatin in serum [3]; dose 10 mg/kg, dexamethasone-treated mice", "result": 325.2, "unit": "ng/mL"},
      {"measurement": "Terminal antibody exposure", "setting": "[4]; dose 0.3 mg/kg", "result": 1.2, "unit": "µg/mL"},
      {"measurement": "Terminal antibody exposure", "setting": "[4]; dose 1 mg/kg", "result": 4.7, "unit": "µg/mL"},
      {"measurement": "Terminal antibody exposure", "setting": "[4]; dose 3 mg/kg", "result": 93.1, "unit": "µg/mL"},
      {"measurement": "Terminal antibody exposure", "setting": "[4]; dose 10 mg/kg", "result": 488.4, "unit": "µg/mL"},
      {"measurement": "lean mass", "setting": "[5]; antibody with liraglutide, FIG. 11E", "result": "lean mass increased; also recorded: greater increases in lean mass compared to Ab2"},
      {"measurement": "gastrocnemius muscle mass", "setting": "[5]; antibody with liraglutide, FIG. 11F", "result": "more effective at increasing gastrocnemius mass than Ab2"},
      {"measurement": "subcutaneous inguinal fat pad fat mass", "setting": "[5]; [6]", "result": "reduced the fat mass in the subcutaneous inguinal fat pad"},
      {"measurement": "visceral perigonadal fat pad fat mass", "setting": "[5]; [6]", "result": "reduced the fat mass in the visceral perigonadal fat pad to a greater extent"},
      {"measurement": "body weight of mice on high fat diet", "setting": "[5]; liraglutide daily, antibody weekly for four weeks, FIGS. 11A-D", "result": "lost more body weight compared to those treated with Ab2; also recorded: lost slightly less weight than those treated with liraglutide and an IgG control"},
      {"measurement": "fat mass", "setting": "[5]; with liraglutide, FIG. 11G", "result": "decreased fat mass to a greater extent than Ab2"}
    ]}
  ]
}
